In PubChem BioAssay AID686978 (National Center for Advancing Translational Sciences (NCATS), 2013):
Out of some 420,000 compounds screened, about 64,000 (15%) were called active. Inconclusive results, whose numbers are uncertain, are shown with a selection of clear calls. The call rests on the fitted dose curve; in most records, active means well fitted inhibition curve with a large enough effect; inconclusive means small, poorly fitted or top-dose-only effect; inactive means flat fitted curve, though single readings scatter. No potency is given beside an inconclusive call; the fits are too rough.

Test: qHTS for Inhibitors of human tyrosyl-DNA phosphodiesterase 1 (TDP1): qHTS in cells in absence of CPT; further: nearly all actives have a fitted effect of over 55% in size
Details: DT40 Tdp1-/- hTDP1 cells, no CPT, ATP luminescence, 48 h; activity change, negative = growth inhibition: at 46.2 µM (top of the series) unless noted
Procedure, shortened: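 Seeded 400 DT40-hTDP1 cells/well (vehicle DMSO, no 20 nM CPT); pinned compounds; ≥48 hr at 37 °C; CellTiter-Glo luminescence as viability measure.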
On the % scale 0 is the no-effect control and ±100 the full control effect; potency means the concentration at half of the fitted maximal effect; tags describe the fitted curve by direction and shape.

Compound | Potency | activity change, negative = growth inhibition
CN(CCc1ccccc1)C(=O)c1ccc(NC(=O)Cc2ccc(NC(=O)C3CCCN(C(=O)C4CCCC4)C3)cc2)cc1 (centres undefined) | inconclusive [inhibitor, partial curve, poor fit] | 
O=C(Cc1n[nH]c(=O)c2ccccc12)OCC(=O)c1ccc2c(c1)OCCO2 | active: 1.3 µM | 
Cc1cc(/C=C/c2c(C)cnc3ccccc23)ccc1N(C)C | active: 8.91 µM | 
O=C(OCC(=O)N(CCc1ccccc1)Cc1ccccc1)c1cccc(S(=O)(=O)N2CCOCC2)c1 | active: 7.31 µM | 
O=C(Nc1ccc(Cl)c(S(=O)(=O)N2CCOCC2)c1)c1ccncc1 | inactive | 
CCC(=O)c1ccc(N2CCCCCC2)c(F)c1 | inconclusive [inhibitor, single point] | 
O=C(Nc1ccc(Br)cn1)c1cccc2ccccc12 | active: 2.06 µM | 
Cc1cccc(OCCn2c(=O)sc3ccccc32)c1 | inconclusive [inhibitor, single point] | 
N#Cc1cccc(-n2nnnc2-c2ccc3c(c2)OCO3)c1 | inactive | 
Cc1ccc(NC(=O)CSc2nnc(COc3ccccc3F)n2N)cc1S(=O)(=O)N1CCOCC1 | inconclusive [inhibitor, partial curve] | 
Cc1nc2ncnn2c(C)c1Cc1cccc(C(F)(F)F)c1 | inconclusive [inhibitor, full curve, poor fit] | 
CC1(Oc2ccccc2)CCN(Cc2csc3ccccc23)C1 (centres undefined) | inconclusive [inhibitor, single point] | 
CN(C)CCOCCSc1ccc(Cl)cc1 | inactive | 
CC1=C(C(=O)OCC2CCCO2)C(c2ccccc2OC(C)C)C2=C(CC(c3ccco3)CC2=O)N1 (centres undefined) | inconclusive [inhibitor, single point] | 
COc1cccc(CNC(=O)CCC2CCCN(C(=O)c3cccnc3SC)C2)c1 (centres undefined) | inconclusive [inhibitor, single point] | 
COc1ccc(S(=O)(=O)N2CCCCC2)cc1NC(=O)c1ccccc1 | inactive | 
Cn1c(=O)[nH]c(=O)c2c1nc(N(CCO)Cc1ccccc1)n2CCCc1ccccc1 | inconclusive [inhibitor, single point] | 
CCCn1c(SCC(=O)c2cc(C)n(-c3cc(C)on3)c2C)n[nH]c1=O | inconclusive [inhibitor, single point] | 
CC(=O)ON(C(C)=O)c1ccc(/C=C2\C=Cc3ccccc32)cc1 | inconclusive [inhibitor, single point] | 
CCC(=O)N1CCc2cc(S(=O)(=O)NC(C(=O)Nc3ccc(C(C)=O)cc3)C(C)C)ccc21 (centres undefined) | inconclusive [inhibitor, single point] | 
C=CCn1c(C)cc(/C([O-])=C(/C(=S)Nc2ccc(OC(F)F)cc2)[n+]2ccc(N(C)C)cc2)c1C | active: 18.4 µM | 
CC1=CC(C)(C)N(C(=O)CSc2nccn2C)c2cc(C)ccc21 | inconclusive [inhibitor, single point] | 
Cc1cc(C)c2c(CC(=O)N(Cc3ccccc3)C3CCS(=O)(=O)C3)coc2c1 (centres undefined) | inconclusive [inhibitor, single point] | 

Compound | Potency | activity change, negative = growth inhibition
CC(=O)c1cccc(NC(=O)COC(=O)c2n[nH]c3ccccc23)c1 | inconclusive [inhibitor, single point] | 
Cc1ccc(OCc2cc(C(=O)NCc3cn4ccccc4n3)no2)cc1C | inactive | 
CSc1ccc(S(=O)(=O)NCC(=O)OCCOc2ccccc2)cc1[N+](=O)[O-] | inactive | 
COc1ccc(/C=C/C(=O)Nc2cccnc2)cc1OC | inactive | 
Cc1cc(C)cc(OCC(=O)Nc2ccc(-c3nc4ccccc4o3)cc2)c1 |  | inconclusive: -30.5% [inhibitor]
O=C(Nc1ccc(-c2cscn2)cc1)C1CCCN(Cc2ccccc2)C1 (centres undefined) | inconclusive [inhibitor, single point] | 
CCN1CCN(c2ccc(Cl)cc2NC(=O)c2ccc(-n3nc(C)cc3C)cc2)CC1 | inconclusive [inhibitor, partial curve] | 
CCC(=O)N1CCc2cc(Br)cc(S(=O)(=O)N3CCCC(C(=O)N(C)c4ccc(Br)cc4)C3)c21 (centres undefined) | inconclusive [inhibitor, single point] | 
Cc1cc(C)n(CCNC(=O)[C@H]2O[C@@H](n3cnc4c(N)ncnc43)[C@H](O)[C@@H]2O)n1 | inactive | 
CC(=O)OCc1c(F)c(F)c(-n2nc(C)cc2C)c(F)c1F | inactive | 
CCSC1=C(C#N)C(c2ccccc2Cl)C(C(=O)c2cccs2)C(O)(C(F)(F)F)N1 (centres undefined) | inconclusive [inhibitor, partial curve] | 
CC[C@@H](CC1CCCCC1)C(=O)N(Cc1ccccc1)c1ccccc1 | active: 4.11 µM | 
CCCC1(c2ccccc2)NC(=O)N(C/C=C/Cl)C1=O (centres undefined) | inconclusive [inhibitor, single point] | 
Cc1ccc2nc3c(cc(C(=O)NC4CCCC4)c(=N)n3C3CCCCC3)c(=O)n2c1 | inconclusive [inhibitor, single point] | 
O=C(O)c1ccc(NC(=S)NC(=O)c2cccc(COc3ccccc3)c2)cc1 | inactive | 
O=C(Nc1ccc(S(=O)(=O)Nc2cnc3ccccc3n2)cc1)c1ccc(Cl)cc1Cl | inconclusive [inhibitor, single point] | 
Clc1cccc(-c2nc3c4ccccc4ccn3c2CC2CCCCC2)c1 | inconclusive [inhibitor, single point] | 
CCOC(=O)c1c(-c2ccccc2)oc2ccc(O)cc12 | inconclusive [inhibitor, single point] | 
COc1c(Cl)cc(-c2noc(C)c2C(=O)NC(C)C)cc1Cl | inactive | 
CC(NC(=O)c1cc(Br)cs1)C1CCCO1 (centres undefined) | inactive | 
Cc1cc(N2CCOCC2)nc(-c2ccccc2O)n1 | inconclusive [inhibitor, partial curve] | 
COc1ccc(C(CCNC(C)c2ccccc2)c2ccc(F)cc2)cc1 (centres undefined) | active: 7.31 µM | 
O=C(Cn1c(=O)oc2cc(S(=O)(=O)N3CCCC3)ccc21)N1CCN(C2CCCCC2)CC1 | inconclusive [inhibitor, partial curve] | 

Compound | Potency | activity change, negative = growth inhibition
COc1ccccc1N=CC=C1OC(C)(C)C(C)(C)O1 | inconclusive [inhibitor, single point] | 
Cc1ccc(SCC(=O)Nc2ccc(-c3nc4ccccc4[nH]3)cc2)cc1 | inconclusive [inhibitor, single point] | 
COc1ccc(NC(=O)c2cccn2-c2nnc(N3CCCCC3)s2)cc1 | inconclusive [inhibitor, single point] | 
COc1ccc(NC(=O)C2Cc3c(-c4cccc(NC(C)=O)c4)ccnc3O2)cc1OC (centres undefined) | inconclusive [inhibitor, full curve, poor fit] | 
COc1ccc(C(=O)NCCn2cc(SCC(=O)Nc3cc(C)on3)c3ccccc32)cc1OC | inconclusive [inhibitor, single point] | 
Cc1cccc(NS(=O)(=O)c2ccc(C(=O)NCC(C)(C)N3CCOCC3)cc2)c1C | inconclusive [inhibitor, single point] | 
Cc1cccc(-n2nnnc2SCC(=O)Nc2cccc(S(N)(=O)=O)c2)c1 | inconclusive [inhibitor, single point] | 
Cc1ccccc1C(=O)N(Cc1nc2ccccc2c(=O)[nH]1)C1CCCC1 | inconclusive [inhibitor, single point] | 
O=C(Cc1ccc(F)cc1)NCCS(=O)(=O)N1CCN(c2cccc(Cl)c2)CC1 | inconclusive [inhibitor, single point] | 
CCN1C(N(C)CCc2cccs2)=N[C@@H](c2ccccc2)C(C(=O)OC)=C1C | inconclusive [inhibitor, single point] | 
COC(=O)c1ccc(COC(=O)CNC(=O)c2ccc(OC)cc2)cc1 | inactive | 
O=c1c2ccccc2c(-c2cccc(C(F)(F)F)c2)nn1-c1ccccc1 | inconclusive [inhibitor, partial curve, poor fit] | 
O=S(=O)(c1ccc2oc(=S)[nH]c2c1)N1CCCCC1 | inactive | 
Cc1ccc(-c2noc(CN(C(=O)C(c3ccccc3)c3ccccc3)C(C)C)n2)cc1 | active: 14.6 µM | 
CCCCCCCCCOC(=O)C1N2C(=O)[C@@H](NC(=O)COc3ccccc3)[C@H]2SC1(C)C (some centres undefined) | inconclusive [inhibitor, single point] | 
CN(Cc1ccccc1)c1ccc(C=O)cc1 | inconclusive [inhibitor, single point] | 
CCN(CC)CC(=O)Nc1cccc(S(=O)(=O)N2CCCC2)c1 | inconclusive [inhibitor, partial curve, poor fit] | 
COc1ccc(Cl)cc1NC(=O)CN(C)CC(=O)Nc1ccccc1-c1ccccc1 | active: 23.1 µM | 
O=C(N/N=C/c1cccs1)c1cc(-c2ccc3ccccc3c2)n[nH]1 | active: 20.6 µM | 
COc1ccc(CN(C)CC(=O)Nc2ccccc2C(=O)NC2CC2)cc1OC | inactive | 
CCOc1ccc(NC(=O)c2nccnc2CO)cc1 | inactive | 
COc1cccc(N=C2C(=O)N3CCCc4cccc2c43)c1 | inconclusive [inhibitor, single point] | 
CC1CCc2sc3ncnc(N4CCOCC4)c3c2C1 (centres undefined) | inconclusive [inhibitor, partial curve, poor fit] | 
